Results from the supplement of paper PMC4967469.
IC50 is the fitted dose that halves viability relative to control wells, and lower means more sensitive; fits outside the tested doses are given as limits. AUC is the area under the same curve over the 256-fold range up to the top dose, as a fraction; values near 1 show little effect. For some assays here: A top dose marked as inferred was calculated from the reported fits. For some assays here: An entry number marks a drug with two screens in the source, which often give different values.

What was measured:
Experiment in all cases: Viability of human cancer cell lines after 72 h of drug (GDSC screen)
Pazopanib = compound: Cc1ccc(Nc2nccc(N(C)c3ccc4c(C)n(C)nc4c3)n2)cc1S(N)(=O)=O [Pazopanib]; settings: top dose 8 µM
Procedure: (§1)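 Human cancer cell lines in 384-well plates, medium with 10% serum, drug for 72 h over a 256-fold dose range (nine 2-fold or five 4-fold steps up to the top dose). Adherent lines were fixed and stained with the nucleic acid dye Syto60, suspension lines read with resazurin; signal relative to control wells, capped at 0 and 100%. One two-parameter sigmoid per drug and line, fitted in a mixed model over all curves with the slope shared within a line.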

CEP-701 = compound: C[C@]12O[C@H](C[C@]1(O)CO)n1c3ccccc3c3c4c(c5c6ccccc6n2c5c31)CNC4=O [CEP-701]; settings: top dose 2 µM; top dose inferred
Procedure: as §1

SB 216763 = compound: Cn1cc(C2=C(c3ccc(Cl)cc3Cl)C(=O)NC2=O)c2ccccc21 [SB 216763]; settings: top dose 10 µM; top dose inferred
Procedure: as §1

GDC0941 = compound: CS(=O)(=O)N1CCN(Cc2cc3nc(-c4cccc5[nH]ncc45)nc(N4CCOCC4)c3s2)CC1 [GDC0941]; settings: top dose 4 µM; screen: GDSC drug entry 1527; top dose inferred
Procedure: as §1

AR-42 = compound: CC(C)[C@H](C(=O)Nc1ccc(C(=O)NO)cc1)c1ccccc1 [AR-42]; settings: top dose 5.12 µM; top dose inferred
Procedure: as §1

Row | Cell Line | AUC (Pazopanib) | IC50 (Pazopanib) | AUC (CEP-701) | IC50 (CEP-701) | AUC (SB 216763) | IC50 (SB 216763) | AUC (GDC0941) | IC50 (GDC0941) | AUC (AR-42) | IC50 (AR-42)
1 | COLO-800 (melanoma, adherent) | 0.967 | > 8 µM | 0.559 | 180 nM | 0.981 | > 10 µM | 0.616 | 518 nM | 0.886 | > 5120 nM
2 | 639-V (bladder, adherent) | 0.985 | > 8 µM | 0.916 | > 2000 nM | 0.962 | > 10 µM | 0.928 | > 4000 nM | 0.837 | 2740 nM
3 | H2731 (mesothelioma, adherent) | 0.758 | 3.16 µM | 0.737 | 663 nM | 0.984 | > 10 µM | 0.821 | 2770 nM | 0.173 | 27.3 nM
4 | LCLC-103H (large cell lung carcinoma, adherent) | 0.679 | 1.49 µM | 0.822 | 1020 nM | 0.969 | > 10 µM | 0.972 | > 4000 nM | 0.606 | 605 nM
5 | CAL-39 (cervix, adherent) | 0.985 | > 8 µM | 0.7 | 466 nM | 0.982 | > 10 µM | 0.637 | 606 nM | 0.718 | 1360 nM
6 | BxPC-3 (pancreas, adherent) | 0.953 | > 8 µM | 0.749 | 717 nM | 0.937 | > 10 µM | 0.775 | 1770 nM | 0.639 | 813 nM
7 | BICR78 (head and neck, adherent) | 0.982 | > 8 µM | 0.454 | 92 nM | 0.978 | > 10 µM | 0.641 | 654 nM | 0.508 | 337 nM
8 | SBC-5 (small cell lung carcinoma, adherent) | 0.991 | > 8 µM | 0.653 | 303 nM | 0.993 | > 10 µM | 0.855 | 2310 nM | 0.528 | 376 nM
9 | NCI-H1792 (lung adenocarcinoma, adherent) | 0.984 | > 8 µM | 0.792 | 808 nM | 0.956 | > 10 µM | 0.67 | 707 nM | 0.866 | 3840 nM
10 | NCI-H596 (lung adenocarcinoma, adherent) | 0.954 | > 8 µM | 0.814 | 1520 nM | 0.979 | > 10 µM | 0.777 | 2110 nM | 0.642 | 888 nM
11 | CHSA8926 (chondrosarcoma, adherent) | 0.832 | > 8 µM | 0.769 | 1090 nM | 0.92 | > 10 µM | 0.654 | 804 nM | 0.979 | > 5120 nM
12 | Ca9-22 (head and neck, adherent) | 0.979 | > 8 µM | 0.794 | 843 nM | 0.964 | > 10 µM | 0.914 | > 4000 nM | 0.316 | 102 nM
13 | NCI-H2347 (lung adenocarcinoma, adherent) | 0.912 | > 8 µM | 0.873 | > 2000 nM | 0.981 | > 10 µM | 0.81 | 2670 nM | 0.552 | 458 nM
14 | NCI-H1435 (lung adenocarcinoma, semi-adherent) | 0.95 | > 8 µM | 0.992 | > 2000 nM | 0.976 | > 10 µM | 0.973 | > 4000 nM | 0.821 | 2550 nM
15 | PA-TU-8902 (pancreas, adherent) | 0.957 | > 8 µM | 0.702 | 513 nM | 0.98 | > 10 µM | 0.702 | 1030 nM | 0.527 | 385 nM
16 | HCC1569 (breast, adherent) | 0.866 | > 8 µM | 0.942 | > 2000 nM | 0.968 | > 10 µM | 0.683 | 973 nM | 0.625 | 793 nM
17 | NCI-H1568 (lung adenocarcinoma, adherent) | 0.967 | > 8 µM | 0.805 | 1320 nM | 0.978 | > 10 µM | 0.763 | 1790 nM | 0.979 | > 5120 nM
18 | COLO-678 (large intestine, semi-adherent) | 0.985 | > 8 µM | 0.843 | > 2000 nM | 0.978 | > 10 µM | 0.963 | > 4000 nM | 0.884 | > 5120 nM
19 | SiHa (cervix, adherent) | 0.965 | > 8 µM | 0.839 | 1680 nM | 0.985 | > 10 µM | 0.878 | > 4000 nM | 0.965 | > 5120 nM
20 | HCC202 (breast, adherent) | 0.818 | 7.09 µM | 0.972 | > 2000 nM | 0.981 | > 10 µM | 0.805 | 3070 nM | 0.454 | 229 nM
21 | NCI-H650 (lung adenocarcinoma, adherent) | 0.983 | > 8 µM | 0.67 | 393 nM | 0.914 | > 10 µM | 0.917 | > 4000 nM | 0.625 | 732 nM

Row | Cell Line | AUC (Pazopanib) | IC50 (Pazopanib) | AUC (CEP-701) | IC50 (CEP-701) | AUC (SB 216763) | IC50 (SB 216763) | AUC (GDC0941) | IC50 (GDC0941) | AUC (AR-42) | IC50 (AR-42)
22 | NCI-H1688 (small cell lung carcinoma, adherent) | 0.952 | > 8 µM | 0.886 | > 2000 nM | 0.987 | > 10 µM | 0.971 | > 4000 nM | 0.77 | 2150 nM
23 | KYSE-520 (oesophagus, adherent) | 0.946 | > 8 µM | 0.837 | > 2000 nM | 0.971 | > 10 µM | 0.858 | > 4000 nM | 0.741 | 2030 nM
24 | PANC-04-03 (pancreas, adherent) | 0.975 | > 8 µM | 0.908 | > 2000 nM | 0.978 | > 10 µM | 0.798 | 3480 nM | 0.885 | > 5120 nM
25 | MFE-280 (endometrium, adherent) | 0.911 | > 8 µM | 0.892 | > 2000 nM | 0.898 | > 10 µM | 0.401 | 125 nM | 0.63 | 810 nM
26 | HT-1376 (bladder, adherent) | 0.919 | > 8 µM | 0.89 | > 2000 nM | 0.984 | > 10 µM | 0.812 | 2640 nM | 0.93 | > 5120 nM
27 | HuH-7 (liver, adherent) | 0.801 | 3.89 µM | 0.849 | 1490 nM | 0.978 | > 10 µM | 0.895 | > 4000 nM | 0.523 | 369 nM
28 | PCI-4B (head and neck, adherent) | 0.98 | > 8 µM | 0.495 | 122 nM | 0.978 | > 10 µM | 0.803 | 1870 nM | 0.477 | 278 nM
29 | MHH-ES-1 (Ewing sarcoma, adherent) | 0.969 | > 8 µM | 0.591 | 221 nM | 0.979 | > 10 µM | 0.765 | 1450 nM | 0.437 | 216 nM
30 | H2869 (mesothelioma, adherent) | 0.878 | > 8 µM | 0.931 | > 2000 nM | 0.969 | > 10 µM | 0.953 | > 4000 nM | 0.659 | 990 nM
31 | PC-3 [JPC-3] (lung adenocarcinoma, adherent) | 0.904 | > 8 µM | 0.722 | 666 nM | 0.98 | > 10 µM | 0.87 | > 4000 nM | 0.577 | 557 nM
32 | SAS (head and neck, adherent) | 0.917 | > 8 µM | 0.735 | 639 nM | 0.984 | > 10 µM | 0.752 | 1460 nM | 0.59 | 580 nM
33 | KYSE-220 (oesophagus, adherent) | 0.985 | > 8 µM | 0.721 | 551 nM | 0.986 | > 10 µM | 0.904 | > 4000 nM | 0.679 | 1040 nM
34 | CCK-81 (large intestine, adherent) | 0.981 | > 8 µM | 0.911 | > 2000 nM | 0.969 | > 10 µM | 0.969 | > 4000 nM | 0.44 | 221 nM
35 | VMRC-RCZ (kidney, adherent) | 0.973 | > 8 µM | 0.488 | 115 nM | 0.968 | > 10 µM | 0.809 | 2510 nM | 0.59 | 590 nM
36 | U-118-MG (glioma, adherent) | 0.869 | > 8 µM | 0.833 | 1590 nM | 0.983 | > 10 µM | 0.893 | > 4000 nM | 0.749 | 1880 nM
37 | ESS-1 (endometrium, adherent) | 0.695 | 1.65 µM | 0.791 | 800 nM | 0.99 | > 10 µM | 0.809 | 1840 nM | 0.541 | 410 nM
38 | HDQ-P1 (breast, adherent) | 0.968 | > 8 µM | 0.763 | 856 nM | 0.985 | > 10 µM | 0.825 | 3050 nM | 0.547 | 442 nM
39 | Hs683 (glioma, adherent) | 0.935 | > 8 µM | 0.707 | 484 nM | 0.913 | > 10 µM | 0.909 | > 4000 nM | 0.756 | 1760 nM
40 | PANC-08-13 (pancreas, adherent) | 0.961 | > 8 µM | 0.912 | > 2000 nM | 0.965 | > 10 µM | 0.733 | 1420 nM | 0.791 | 3050 nM
41 | OVCAR-5 (ovary, adherent) | 0.939 | > 8 µM | 0.721 | 607 nM | 0.982 | > 10 µM | 0.658 | 754 nM | 0.483 | 286 nM
